Assay results from a collection of fitness landscapes (doi:10.1126/science.1257360).
This is one part of the list.

B1: PhoQ; a variant is named by its letters at X, in order, P23837 (parent)
chain: MKKLLRLFFPLSLRVRFLLATAAVVLVLSLAYGMVALIGYSVSFDKTTFRLLRGESNLFYTLAKWENNKLHVELPENIDKQSPTMTLIYDENGQLLWAQRDVPWLMKMIQPDWLKSNGFHEIEADVNDTSLLLSGDHSIQQQLQEVREDDDDAEMTHSVAVNVYPATSRMPKLTIVVVDTIPVELKSSYMVWSWFIYVLSANLLLVIPLLWVAAWWSLRPIEALAKEVRELEEHNRELLNPATTRELTSLVRNLNRLLKSERERYDKYRTTLTDLTHSLKTPLXXLQXXLRSLRSEKMSVSDAEPVMLEQISRISQQIGYYLHRASMRGGTLLSRELHPVAPLLDNLTSALNKVYQRKGVNISLDISPEISFVGEQNDFVEVMGNVLDNACKYCLEFVEISARQTDEHLYIVVEDDGPGIPLSKREVIFDRGQRVDTLRPGQGVGLAVAREITEQYEGKIVAGESMLGGARMEVIFGRQHSAPKDE

Variants of: B1
Test: enrichment ratio after two sorts for PhoP signalling (ratio (wild type AVST 3.29)); higher = more functional
Details: with PhoP (E. coli)

Row | Variant | enrichment ratio
1 | KFMH | ≤ 0.25
2 | SQHV | ≤ 0.25
3 | GWAC | ≤ 0.25
4 | LKNF | ≤ 0.25
5 | ATFP | ≤ 0.25
6 | LQNA | ≤ 0.25
7 | NFHC | ≤ 0.25
8 | NGYF | ≤ 0.25
9 | VHVF | ≤ 0.25
10 | ITWP | ≤ 0.25
11 | CCMQ | 6.53
12 | PGNP | ≤ 0.25
13 | WNRR | ≤ 0.25
14 | LVHT | ≤ 0.25
15 | MPPK | ≤ 0.25
16 | QPLH | ≤ 0.25
17 | QDMN | ≤ 0.25
18 | KITM | ≤ 0.25
19 | NNLL | 4.63
20 | GIQR | ≤ 0.25
21 | ERFQ | ≤ 0.25
22 | GDQL | ≤ 0.25
23 | DMFT | ≤ 0.25
24 | PKCG | ≤ 0.25

Row | Variant | enrichment ratio
25 | TSWH | 9.44
26 | TWLA | ≤ 0.25
27 | WWPV | ≤ 0.25
28 | FIWE | 2.83
29 | FINI | ≤ 0.25
30 | QVVM | ≤ 0.25
31 | ETCF | ≤ 0.25
32 | WECN | ≤ 0.25
33 | PLSI | 0.275
34 | RIQV | 2.38
35 | DGIL | ≤ 0.25
36 | KMKG | ≤ 0.25
37 | NCLT | ≤ 0.25
38 | SNCC | 14.7
39 | ILCH | ≤ 0.25
40 | VFAC | ≤ 0.25
41 | QPVY | ≤ 0.25
42 | AVGM | 3.94
43 | FCRR | ≤ 0.25
44 | IWEN | ≤ 0.25
45 | NDNQ | ≤ 0.25
46 | WEVA | ≤ 0.25
47 | TWGA | ≤ 0.25
48 | DMAQ | ≤ 0.25

Row | Variant | enrichment ratio
49 | WYNL | ≤ 0.25
50 | KGGW | ≤ 0.25
51 | YKFC | ≤ 0.25
52 | IHVQ | ≤ 0.25
53 | YPGN | ≤ 0.25
54 | EKVV | ≤ 0.25
55 | ERTR | ≤ 0.25
56 | VSFK | ≤ 0.25
57 | FRRK | ≤ 0.25
58 | GLPH | ≤ 0.25
59 | IDSV | ≤ 0.25
60 | IDHT | ≤ 0.25
61 | PWQV | ≤ 0.25
62 | VPRV | ≤ 0.25
63 | EQDN | ≤ 0.25
64 | RRPT | ≤ 0.25
65 | DYKE | ≤ 0.25
66 | FTPK | ≤ 0.25
67 | NERK | ≤ 0.25
68 | LAIK | ≤ 0.25
69 | EPPG | ≤ 0.25
70 | DCWW | ≤ 0.25
71 | PPNR | ≤ 0.25
72 | FPYF | ≤ 0.25

Row | Variant | enrichment ratio
73 | ALAS | 1.58
74 | IKKW | ≤ 0.25
75 | PETG | ≤ 0.25
76 | GSCE | 3.02
77 | AQTE | ≤ 0.25
78 | YAVA | ≤ 0.25
79 | VTAM | 4.58
80 | KWLH | ≤ 0.25
81 | NIGN | ≤ 0.25
82 | FKWR | ≤ 0.25
83 | ELQD | ≤ 0.25
84 | NYTY | ≤ 0.25
85 | CHLY | ≤ 0.25
86 | DFRG | 0.676
87 | TRMQ | ≤ 0.25
88 | RFWQ | ≤ 0.25
89 | IIFR | ≤ 0.25
90 | AGKC | ≤ 0.25
91 | HECP | ≤ 0.25
92 | TMHT | ≤ 0.25
93 | FQWP | ≤ 0.25
94 | SSYC | ≤ 0.25
95 | TYSC | 5.02
96 | NECH | 18

Row | Variant | enrichment ratio
97 | ESKT | ≤ 0.25
98 | SEMP | ≤ 0.25
99 | VKCT | ≤ 0.25
100 | TFEW | ≤ 0.25
101 | DIRY | ≤ 0.25
102 | PQMP | ≤ 0.25
103 | RSCV | ≤ 0.25
104 | KLQV | ≤ 0.25
105 | FEIN | ≤ 0.25
106 | IEWT | ≤ 0.25
107 | TKLV | 23.3
108 | GMYG | ≤ 0.25
109 | KMSI | ≤ 0.25
110 | PMND | ≤ 0.25
111 | SNVC | 11.5
112 | YISP | ≤ 0.25
113 | SEQP | ≤ 0.25
114 | WDYM | ≤ 0.25
115 | MVQP | ≤ 0.25
116 | RIFI | ≤ 0.25
117 | KIFI | ≤ 0.25
118 | HKAF | ≤ 0.25
119 | ISYH | ≤ 0.25
120 | YDCQ | ≤ 0.25

Row | Variant | enrichment ratio
121 | KQVS | ≤ 0.25
122 | RFRD | ≤ 0.25
123 | YPVN | ≤ 0.25
124 | FTAR | ≤ 0.25
125 | RDWC | ≤ 0.25
126 | ALQG | ≤ 0.25
127 | YIAL | 2.7
128 | YNHV | ≤ 0.25
129 | TQAF | 10.3
130 | KCDA | ≤ 0.25
131 | TMVC | ≤ 0.25
132 | DWSC | ≤ 0.25
133 | GYQH | ≤ 0.25
134 | MHWI | ≤ 0.25
135 | LPGE | ≤ 0.25
136 | LIHV | ≤ 0.25
137 | YSQW | ≤ 0.25
138 | NDLG | ≤ 0.25
139 | VWTQ | ≤ 0.25
140 | DNGC | ≤ 0.25
141 | WELF | ≤ 0.25
142 | DAHH | ≤ 0.25
143 | YRTW | ≤ 0.25
144 | VHPG | ≤ 0.25

Row | Variant | enrichment ratio
145 | WIHH | ≤ 0.25
146 | AKRW | ≤ 0.25
147 | NFVH | ≤ 0.25
148 | HHKI | ≤ 0.25
149 | DGFC | ≤ 0.25
150 | QYND | ≤ 0.25
151 | DMYE | ≤ 0.25
152 | WKVW | 2.6
153 | RDAV | ≤ 0.25
154 | WKHE | ≤ 0.25
155 | LNEC | ≤ 0.25
156 | MTQH | ≤ 0.25
157 | IPYM | ≤ 0.25
158 | QAMN | ≤ 0.25
159 | YRPG | ≤ 0.25
160 | LAHT | ≤ 0.25
161 | WMGW | ≤ 0.25
162 | QCVH | ≤ 0.25
163 | INYY | ≤ 0.25
164 | RNQW | ≤ 0.25
165 | LYTK | ≤ 0.25
166 | WCNR | ≤ 0.25
167 | GIWN | ≤ 0.25
168 | KIYK | ≤ 0.25

Row | Variant | enrichment ratio
169 | FGDK | ≤ 0.25
170 | VTFM | 1.27
171 | DRMK | ≤ 0.25
172 | AQTS | 12.8
173 | DPDG | ≤ 0.25
174 | CHFM | ≤ 0.25
175 | VDIW | ≤ 0.25
176 | MDWN | ≤ 0.25
177 | WFIR | ≤ 0.25
178 | TLPR | ≤ 0.25
179 | FPSL | ≤ 0.25
180 | LRIK | ≤ 0.25
181 | FAWA | ≤ 0.25
182 | FTKY | ≤ 0.25
183 | NPWL | ≤ 0.25
184 | AFGH | ≤ 0.25
185 | IKWP | ≤ 0.25
186 | FLGY | ≤ 0.25
187 | DWMH | ≤ 0.25
188 | DGMN | ≤ 0.25
189 | FTMV | 6.33
190 | FLRD | ≤ 0.25
191 | YTHY | ≤ 0.25
192 | PTQR | ≤ 0.25

Row | Variant | enrichment ratio
193 | DWSE | ≤ 0.25
194 | PAPC | ≤ 0.25
195 | MCKF | ≤ 0.25
196 | MTNV | ≤ 0.25
197 | PPPF | ≤ 0.25
198 | DISK | ≤ 0.25
199 | WIAV | ≤ 0.25
200 | ICCT | ≤ 0.25
201 | EIMY | ≤ 0.25
202 | PVVT | ≤ 0.25
203 | QAPA | ≤ 0.25
204 | SPQS | ≤ 0.25
205 | GYWN | ≤ 0.25
206 | MCLF | 4.54
207 | WPWQ | ≤ 0.25
208 | AGWV | ≤ 0.25
209 | RKIV | ≤ 0.25
210 | GDIE | ≤ 0.25
211 | VHVD | ≤ 0.25
212 | NHNG | ≤ 0.25
213 | KEHR | ≤ 0.25
214 | TSPP | ≤ 0.25
215 | PVVP | ≤ 0.25
216 | HAAS | ≤ 0.25

Row | Variant | enrichment ratio
217 | AQRS | ≤ 0.25
218 | HNGY | ≤ 0.25
219 | LSHL | 8.33
220 | IQHI | ≤ 0.25
221 | PLPL | ≤ 0.25
222 | NFQS | ≤ 0.25
223 | DRWL | ≤ 0.25
224 | QING | ≤ 0.25
225 | KVKK | ≤ 0.25
226 | SNQR | ≤ 0.25
227 | LNPI | ≤ 0.25
228 | SATD | ≤ 0.25
229 | NCDP | ≤ 0.25
230 | MECH | 56.6
231 | YDFN | ≤ 0.25
232 | KLCW | ≤ 0.25
233 | GYFM | ≤ 0.25
234 | PTKQ | ≤ 0.25
235 | RAHH | ≤ 0.25
236 | YNPC | ≤ 0.25
237 | QDWA | ≤ 0.25
238 | DCME | ≤ 0.25
239 | YQGR | ≤ 0.25
240 | IFFL | ≤ 0.25

Row | Variant | enrichment ratio
241 | SLDE | ≤ 0.25
242 | MSKR | ≤ 0.25
243 | PNST | ≤ 0.25
244 | KAAR | 2.14
245 | QIMI | ≤ 0.25
246 | STNQ | 1.23
247 | PDDG | ≤ 0.25
248 | PEFP | ≤ 0.25
249 | LMVF | ≤ 0.25
250 | RVFY | ≤ 0.25
251 | RVCE | ≤ 0.25
252 | FTAS | ≤ 0.25
253 | ALAY | 1.84
254 | WQLS | ≤ 0.25
255 | IPDL | ≤ 0.25
256 | KRPI | ≤ 0.25
257 | MDYA | ≤ 0.25
258 | YWWM | ≤ 0.25
259 | TFMD | ≤ 0.25
260 | IHVA | ≤ 0.25
261 | PTCV | ≤ 0.25
262 | YEFP | ≤ 0.25
263 | ISFK | ≤ 0.25
264 | LHNF | ≤ 0.25

Row | Variant | enrichment ratio
265 | HDFW | ≤ 0.25
266 | QCCF | ≤ 0.25
267 | VSMG | 2.61
268 | NPFF | ≤ 0.25
269 | SCHG | ≤ 0.25
270 | DQGG | ≤ 0.25
271 | RVTM | ≤ 0.25
272 | WCPR | ≤ 0.25
273 | HCII | ≤ 0.25
274 | DSQW | ≤ 0.25
275 | YWHF | ≤ 0.25
276 | AKHQ | ≤ 0.25
277 | HHAY | ≤ 0.25
278 | SCCT | 3.81
279 | WCGE | ≤ 0.25
280 | GSTK | ≤ 0.25
281 | WIRY | ≤ 0.25
282 | VRYT | ≤ 0.25
283 | KFIR | ≤ 0.25
284 | FLQS | ≤ 0.25
285 | AHWP | ≤ 0.25
286 | FRAE | ≤ 0.25
287 | FPRL | ≤ 0.25
288 | MAGR | ≤ 0.25

Row | Variant | enrichment ratio
289 | TMWQ | ≤ 0.25
290 | FMTP | ≤ 0.25
291 | SPRG | ≤ 0.25
292 | HGKL | ≤ 0.25
293 | IISH | ≤ 0.25
294 | RVKF | ≤ 0.25
295 | GWLA | ≤ 0.25
296 | IYSR | ≤ 0.25
297 | TMWK | ≤ 0.25
298 | AFEN | ≤ 0.25
299 | TGAS | 14
300 | YSVC | ≤ 0.25
301 | KYET | ≤ 0.25
302 | AVGK | ≤ 0.25
303 | DARV | ≤ 0.25
304 | SLEI | ≤ 0.25
305 | WPEK | ≤ 0.25
306 | HTKD | ≤ 0.25
